# “And” between values parts separate entries of the source, which are not always exact repeats. Equal values may be shown once. Inconclusive results, whose numbers are uncertain, are shown with a selection of clear calls. Potencies of inconclusive entries are doubtful fits and often do not repeat. Where a structure was tested more than once in an assay, its records may differ in their call. The source made the active and inactive calls. Unless noted, the call rests on the fitted dose curve; in most records, active means well fitted curve in the direction sought with a large enough effect in the repeat runs; inconclusive means weak or mixed curves; inactive means no such curve, though single readings can be large; an effect the other way counts as inactive or inconclusive.
# Experiments:
# [1] = qHTS assay to identify small molecule agonists of the constitutive androstane receptor (CAR) signaling pathway - cell viability counter screen (AID 1224836); further: nearly all actives have a fitted effect of over 45% in size; on viability change, negative = cytotoxic: on the % scale 0 is the no-effect control and ±100 the full control effect
# In short: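 HepG2 cells stably carrying hCAR and a CYP2B6-2.2kb reporter were plated 4 h, then given compounds at 15 concentrations plus PK11195 (final 0.75 uM). After 23 h at 37 C, viability was read by CellTiter-Fluor fluorescence.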
# [2] = qHTS assay to identify small molecule antagonists of the constitutive androstane receptor (CAR) signaling pathway - cell viability counter screen (AID 1224837); further: nearly all actives have a fitted effect of over 45% in size
# In short: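 Using CellTiter-Fluor, viability is scored in HepG2 cells stably carrying hCAR and a 2.2kb CYP2B6 reporter after 23 hr compound exposure across 15 concentrations, with CITCO present at 50 nM.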
# [3] = qHTS assay to identify small molecule agonists of the hypoxia (HIF-1) signaling pathway - cell viability counter screen (AID 1224844; calls by dose curve; further: nearly all actives have a fitted effect of over 50% in size)
# In short: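 Multiplexed with the HRE beta-lactamase assay, this viability read used CellTiter-Glo luminescence (30 min, RT) on HRE-bla ME-180 cells treated 17 hrs with compounds in 0.5% dialyzed FBS medium.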
# [4] = qHTS assay to identify small molecule antagonists of the estrogen related receptor signaling pathway with the pleiotropic PPARgamma coactivator (PGC) from Tox21 10K library - cell viability counter screen (AID 1224840; active means well fitted cell-killing curve with a large enough effect in the repeat runs, not every such curve was filed as active; inconclusive means weak or mixed curves, or effect the other way; inactive means no such curve, though single readings can be large or run the other way; further: nearly all actives have a fitted effect of over 40% in size)
# In short: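 Here the PGC/ERR cells serve as a cytotoxicity control: they are exposed to compounds for 17.5 hours at 37 C, and live-cell signal is quantified using CellTiter-Fluor fluorescence.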
# [5] = qHTS assay to identify small molecule agonists of H2AX (AID 1224845; active means well fitted activation curve with a large enough effect in the signal ratio in the repeat runs, not every such curve was filed as active; inconclusive means weak or mixed curves; the % refers to the signal ratio); settings: CHO-K1 phospho-H2AX Ser139 HTRF, 3 h; activation (H2AX phosphorylation): at 154 µM (top of the series) unless noted
# In short: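 Wild-type CHO-K1 cells plated overnight, then exposed 3 hr at 37C to compounds at 15 concentrations (0.76% DMSO). Lysed, then HTRF anti-pH2AX(S139)-cryptate/anti-H2AX-d2 detection after 24 hr at room temperature; emissions 665 and 620 nm.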
# [6] = qHTS assay to identify small molecule antagonists of the estrogen related receptor signaling pathway with the pleiotropic PPARgamma coactivator (PGC) from Tox21 10K library (AID 1224841; call rule not given here; further: actives are mostly falling curves and most rising ones were filed inactive; nearly all actives have a fitted effect of over 50% in size)
# In short: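 Each well held 2,000 PGC/ERR cells, pre-incubated six hours (37 C, 5% CO2). Test substances in DMSO were added by pin tool and left for 18 h at 37 C before luciferase detection by One-Glo.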
# [7] = biological target: Nuclear receptor subfamily 1 group I member 3 (Homo sapiens) (UniProt Q14994); assay: qHTS assay to identify small molecule antagonists of the constitutive androstane receptor (CAR) signaling pathway (AID 1224838); further: nearly all actives have a fitted effect of over 40% in size; on activity, negative = inhibition: on the % scale 0 is the no-effect control and ±100 the full control effect
# In short: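 Reporter luminescence was quantified after 24 h exposure of hCAR/CYP2B6-2.2kb double-stable HepG2 cells to compounds at 15 concentrations in the presence of 50 nM CITCO final.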
# [8] = biological target: Thyrotropin receptor (Homo sapiens) (UniProt P16473); assay: qHTS assay to identify small molecule agonists of the thyroid stimulating hormone receptor (TSHR) signaling pathway (AID 1224843; calls by dose curve; further: nearly all actives have a fitted effect of over 45% in size; on activation: on the % scale 0 is the no-effect control and ±100 the full control effect); settings: TSHR-HEK293 cells, cAMP HTRF, agonist mode, 30 min; activation: at 92.4 µM (top of the series) unless noted
# In short: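 Cell line HEK293 with TSHR; density 800/well. Exposure 30 min RT. Readout HTRF cAMP (cAMP-d2/anti-cAMP-cryptate), 1 h RT before reading.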
# [9] = qHTS assay to identify small molecule agonists of the estrogen related receptor signaling pathway with the pleiotropic PPARgamma coactivator (PGC) from Tox21 10K library (AID 1224842); further: nearly all actives have a fitted effect of over 15% in size
# In short: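 PGC/ERR reporter cells (NTP line) were seeded 2,000 per well, rested 6 h at 37 C/5% CO2, then pin-dosed with compounds in DMSO for 18 h at 37 C; luciferase read by One-Glo luminescence after 30 min at room temperature.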
# [10] = biological target: Nuclear receptor subfamily 1 group I member 3 (Homo sapiens) (UniProt Q14994); assay: qHTS assay to identify small molecule agonists of the constitutive androstane receptor (CAR) signaling pathway (AID 1224839); further: nearly all actives have a fitted effect of over 15% in size;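 on activation: HepG2 cells stably carrying human CAR and a CYP2B6 luciferase reporter; on the % scale 0 is the no-effect control and ±100 the full control effect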
# In short: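 HepG2 cells stably expressing hCAR and a CYP2B6-2.2kb luciferase reporter were treated with compounds at 15 concentrations plus 0.75 uM PK11195 (final) for 24 h at 37 C; luminescence was read after ONE-Glo addition.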
# Potency means the concentration at half of the fitted maximal effect; tags describe the fitted curve by direction and shape or compound fluorescence and quenching.
# Chain of UniProt P16473 (P16473 whole entry, looked up): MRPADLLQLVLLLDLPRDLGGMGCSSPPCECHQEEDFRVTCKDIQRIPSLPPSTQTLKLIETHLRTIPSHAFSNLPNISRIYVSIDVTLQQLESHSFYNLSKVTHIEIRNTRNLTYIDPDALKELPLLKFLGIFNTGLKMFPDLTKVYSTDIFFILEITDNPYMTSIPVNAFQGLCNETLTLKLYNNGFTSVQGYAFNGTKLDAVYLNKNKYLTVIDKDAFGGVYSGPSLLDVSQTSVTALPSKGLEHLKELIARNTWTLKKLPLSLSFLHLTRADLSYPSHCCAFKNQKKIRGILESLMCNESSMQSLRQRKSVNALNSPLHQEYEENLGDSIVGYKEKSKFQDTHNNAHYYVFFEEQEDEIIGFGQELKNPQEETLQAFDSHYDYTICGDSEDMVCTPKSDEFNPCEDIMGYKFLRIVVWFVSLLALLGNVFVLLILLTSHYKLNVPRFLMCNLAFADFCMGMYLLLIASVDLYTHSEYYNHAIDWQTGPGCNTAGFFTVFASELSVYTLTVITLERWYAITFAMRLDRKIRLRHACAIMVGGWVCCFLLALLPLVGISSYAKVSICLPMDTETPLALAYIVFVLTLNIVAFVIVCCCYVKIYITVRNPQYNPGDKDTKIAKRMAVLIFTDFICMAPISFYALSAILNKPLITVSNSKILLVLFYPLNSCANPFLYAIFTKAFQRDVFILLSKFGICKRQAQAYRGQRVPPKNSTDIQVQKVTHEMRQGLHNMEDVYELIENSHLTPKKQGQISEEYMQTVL
# Chain of UniProt Q14994 (Q14994 whole entry, looked up): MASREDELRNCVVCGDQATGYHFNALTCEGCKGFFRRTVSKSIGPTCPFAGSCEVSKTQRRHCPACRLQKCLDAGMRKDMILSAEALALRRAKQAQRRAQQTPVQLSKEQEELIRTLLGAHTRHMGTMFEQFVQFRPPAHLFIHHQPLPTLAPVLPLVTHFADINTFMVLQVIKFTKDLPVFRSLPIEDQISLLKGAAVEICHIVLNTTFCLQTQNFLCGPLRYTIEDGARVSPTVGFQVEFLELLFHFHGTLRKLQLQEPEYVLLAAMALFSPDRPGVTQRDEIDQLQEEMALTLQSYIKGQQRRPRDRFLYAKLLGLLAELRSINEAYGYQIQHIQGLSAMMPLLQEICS
structure (smiles),measurement,setting,value
Fc1ccccc1[C@@H](F)COC1CCC(Nc2ncnc3[nH]ncc23)CC1 (stereo partly drawn),Potency,[1],"inconclusive: 27.3 µM [cytotoxic, partial curve]"
same,Potency,[2],"inconclusive: 24.3 µM [cytotoxic, partial curve]"
same,Potency,[3],inactive
COC(=O)C1=C(C)NC(C)=C(C(=O)OCCN2CCN(C(c3ccccc3)c3ccccc3)CC2)C1c1cccc([N+](=O)[O-])c1 (stereo not drawn),Potency,[1],"inconclusive: 10.6 µM [cytotoxic, full curve]"
same,Potency,[2],"inconclusive: 18.8 µM [cytotoxic, partial curve]"
same,Potency,[4],"inconclusive: 29.8 µM [cytotoxic, single point]"
same,Potency,[3],"inconclusive: 0.952 µM [cytotoxic, single point]"
same,Potency,[5],inconclusive: 61.9 µM [inhibitor]
Nc1ccc2cc(S(=O)(=O)O)cc(O)c2c1N=Nc1ccccc1C(F)(F)F,Potency,[1],"inconclusive: 48.6 µM [cytotoxic, partial curve, poor fit]"
same,Potency,[2],inconclusive: 54.5 µM [cytotoxic]
same,Potency,[6],"inconclusive: 3.86 µM [falling, full curve]"
same,Potency,[5],"inconclusive: 50.5 µM [falling, partial curve, poor fit]"
O=C1C(=O)c2ccccc2C(O)=C1C1CCC(c2ccc(Cl)cc2)CC1 (stereo not drawn),Potency,[1],"inconclusive: 33.5 µM [cytotoxic, single point]"
same,Potency,[2],"inconclusive: 33.5 µM [cytotoxic, single point]"
same,Potency,[6],"inconclusive: 11.9 µM [falling, single point]"
Cc1cc(S(=O)(=O)O)ccc1N=Nc1c(O)ccc2ccccc12,Potency,[1],active: 48.6 µM
same,Potency,[2],active: 34.4 µM
same,Potency,[6],"inconclusive: 3.86 µM [falling, full curve]"
same,Potency,[5],"inconclusive: 56.6 µM [cytotoxic, partial curve]"
N[C@H](C(=O)O)c1ccc(O)cc1,"viability change, negative = cytotoxic",[1],inactive: -1.44% [at 19 µM]
same,"activity, negative = inhibition",[7],inactive: -5.61% [at 19 µM]
COc1cc(S(=O)(=O)O)c(C)cc1N=Nc1c(O)ccc2cc(S(=O)(=O)O)ccc12,Potency,[1],active: 30.6 µM
same,Potency,[7],"inconclusive: 27.3 µM [inhibitor, partial curve]"
same,Potency,[6],"inconclusive: 30.6 µM [falling, partial curve]"
same,Potency,[5],"inconclusive: 25.3 µM [cytotoxic, full curve]"
N=C(N)c1ccc(OCCCCCOc2ccc(C(=N)N)cc2)cc1,Potency,[1],"inconclusive: 682 nM [cytotoxic, full curve] and inconclusive: 825 nM [cytotoxic, full curve]"
same,Potency,[2],"inconclusive: 431 nM [cytotoxic, full curve] and inconclusive: 655 nM [cytotoxic, full curve] and inconclusive: 668 nM [cytotoxic, full curve]"
same,Potency,[3],"inconclusive: 54.7 µM [cytotoxic, single point] and inconclusive: 52.5 µM [cytotoxic]"
O=C(N[C@@H](c1ccccc1)[C@@H]1CCCCN1)c1cccc(C(F)(F)F)c1Cl,Potency,[1],active: 61.1 µM
same,Potency,[2],active: 61.1 µM
same,Potency,[4],"inconclusive: 54.5 µM [cytotoxic, partial curve]"
same,Potency,[6],"inconclusive: 15.4 µM [falling, partial curve]"
same,Potency,[5],"inconclusive: 113 µM [activator, single point]"
Cc1c(C(=O)O)c(O)cc2c1C(=O)c1c(O)c([C@@H]3O[C@H](CO)[C@@H](O)[C@H](O)[C@H]3O)c(O)c(O)c1C2=O,Potency,[1],"inconclusive: 37.6 µM [cytotoxic, partial curve]"
same,Potency,[2],"inconclusive: 30.6 µM [cytotoxic, partial curve]"
same,Potency,[3],inactive
same,Potency,[5],"inconclusive: 34.9 µM [cytotoxic, partial curve] and inconclusive: 31.8 µM [cytotoxic, partial curve] and inconclusive: 19.6 µM [cytotoxic, partial curve]"
Nc1ccc2c3c(cccc13)-c1ccccc1-2,Potency,[1],"inconclusive: 49.1 µM [rising, partial curve]"
same,Potency,[2],"inconclusive: 30.9 µM [rising, partial curve]"
same,Potency,[4],"inconclusive: 27.6 µM [rising, partial curve]"
same,Potency,[8],inactive
same,Potency,[3],"inconclusive: 62.3 µM [cytotoxic, single point]"
Cc1nccn1-c1ccc(Sc2cccc(C3(C(N)=O)CCOCC3)c2)cc1,Potency,[1],"inconclusive: 17.2 µM [cytotoxic, partial curve]"
same,Potency,[2],"inconclusive: 15.4 µM [cytotoxic, full curve]"
same,Potency,[6],"inconclusive: 1.22 µM [falling, full curve, poor fit]"
same,Potency,[5],"inconclusive: 127 µM [rising, single point]"
Cc1cc(O)ccc1N,Potency,[1],"inconclusive: 17.3 µM [cytotoxic, full curve]"
same,Potency,[2],"inconclusive: 13.8 µM [cytotoxic, full curve]"
same,Potency,[4],"inconclusive: 5.48 µM [cytotoxic, full curve]"
same,Potency,[9],"inconclusive: 15.4 µM [activator, partial curve, poor fit]"
same,Potency,[3],"inconclusive: 22 µM [cytotoxic, partial curve]"
same,Potency,[5],"inconclusive: 101 µM [falling, partial curve]"
CC[C@H]1OC(=O)[C@H](C)[C@@H](O[C@H]2C[C@@](C)(OC)[C@@H](O)[C@H](C)O2)[C@H](C)[C@@H](O[C@@H]2O[C@H](C)C[C@H](N(C)C)[C@H]2O)[C@](C)(O)C[C@@H](C)/C(=N\OCOCCOC)[C@H](C)[C@@H](O)[C@]1(C)O,Potency,[1],active: 25.5 µM
same,Potency,[2],active: 14.3 µM
same,Potency,[3],"inconclusive: 0.646 µM [cytotoxic, partial curve, poor fit]"
NC(=O)N1C(=O)C(C(=O)c2cc(Cl)cs2)c2cc(F)c(Cl)cc21 (stereo not drawn),Potency,[1],"inconclusive: 27.3 µM [cytotoxic, partial curve]"
same,Potency,[2],"inconclusive: 27.3 µM [cytotoxic, partial curve]"
same,Potency,[6],active: 38.6 µM
same,Potency,[8],inactive
same,Potency,[3],"inconclusive: 49 µM [cytotoxic, partial curve]"
CC(C)NCC(O)COc1cccc2ccccc12 (stereo not drawn),Potency,[1],"inconclusive: 61.8 µM [cytotoxic] and inconclusive: 68.6 µM [cytotoxic, partial curve, poor fit]"
same,Potency,[7],"inconclusive: 77.7 µM [inhibitor, single point]"
O=[N+]([O-])C1(Br)COCOC1,Potency,[1],inconclusive: 68.6 µM [cytotoxic]
same,Potency,[7],"inconclusive: 54.5 µM [inhibitor, single point]"
same,Potency,[8],"inconclusive: 17.2 µM [activator, partial curve]"
same,Potency,[5],inconclusive: 45 µM [activator]
O=Cc1ccc(Cl)c([N+](=O)[O-])c1,Potency,[4],"inconclusive: 48.6 µM [cytotoxic, partial curve]"
O=S(=O)(O)c1ccc(N=Nc2c(O)ccc3ccccc23)cc1,Potency,[4],active: 48.6 µM
O=C(O)CCCCCCCCCCCC(=O)O,Potency,[9],"inconclusive: 54.5 µM [activator, partial curve]"
Oc1cccc(O)c1O,Potency,[9],active: 8.56 µM
CC(=O)c1ccc2c(c1)[C@H](NC(=O)c1ccc(F)cc1)[C@@H](O)C(C)(C)O2,Potency,[2],"inconclusive: 57.5 µM [cytotoxic, partial curve, poor fit]"
same,Potency,[3],"inconclusive: 25.9 µM [cytotoxic, partial curve]"
O=C1CCCCCCCCCCCCCCO1,Potency,[2],inactive
same,activation,[8],inconclusive: -39%
CCCCOC(=O)CCCCCCCC(=O)OCCCC,Potency,[7],inactive
same,Potency,[10],inactive
CC1(C)[C@@H]2CC[C@@]1(C)[C@H](O)C2,Potency,[7],"inconclusive: 61.1 µM [inhibitor, partial curve]"
C=Cc1cccc(C)c1,Potency,[7],inactive
O=C(O)C[C@H](O)C[C@H](O)/C=C/c1c(C2CC2)nc2ccccc2c1-c1ccc(F)cc1,"activity, negative = inhibition",[7],inactive: -27.1% [at 19 µM]
same,activation,[10],inactive: -6.78% [at 19 µM]
O=C(/C=C/c1ccc(O)c(O)c1)O[C@@H](C(=O)O)[C@@H](OC(=O)/C=C/c1ccc(O)c(O)c1)C(=O)O,Potency,[2],"inconclusive: 68.5 µM [cytotoxic, partial curve, poor fit]"
same,activation,[8],inconclusive: -0.615%
same,Potency,[5],"inconclusive: 40 µM [cytotoxic, partial curve]"
O=C(/C=C/c1ccc([N+](=O)[O-])cc1)c1ccccc1,Potency,[7],"inconclusive: 77.1 µM [inhibitor, single point]"
same,Potency,[10],"inconclusive: 15.4 µM [activator, partial curve]"
same,Potency,[3],active: 24.6 µM
same,activation (H2AX phosphorylation),[5],inconclusive: 7.35%
CCOC(=O)C(C)(C)Oc1ccc(Cl)cc1,Potency,[2],inactive
same,Potency,[6],inactive
same,activation,[8],inconclusive: -30.9%
same,Potency,[3],inactive
O=C(c1ccccc1)c1ccc(O)cc1,Potency,[7],inactive
same,Potency,[10],"inconclusive: 49.1 µM [activator, partial curve]"
same,Potency,[5],"inconclusive: 57.3 µM [falling, partial curve]"
Cc1[nH]cnc1C[C@H]1CCc2c(C)c3ccccc3n2C1=O,Potency,[7],active: 59.6 µM
same,Potency,[4],"inconclusive: 42.2 µM [cytotoxic, partial curve]"
CC1CCC(C(C)(C)S)C(=O)C1 (stereo not drawn),Potency,[2],inactive
same,Potency,[5],inactive
CCC(=O)C(=O)CC,Potency,[7],"inconclusive: 40.2 µM [inhibitor, partial curve]"
CCN(CC)CCCC(C)Nc1c2ccc(Cl)cc2nc2ccc(OC)cc12 (stereo not drawn),Potency,[2],"inconclusive: 2.66 µM [cytotoxic, full curve, poor fit]"
same,activation,[8],inconclusive: -20.5% [at 42.5 µM]
same,Potency,[3],active: 16.9 µM
same,Potency,[5],inconclusive: 55.2 µM [single point]
